Laboratory results from the supplement of paper PMC6531468.
Some of the results follow. Read counts after selection give these values, which scatter widely. Each score is taken over the longer molecules that contain the sequence shown.

Tests used:
Assay in all cases: 6-mer SELEX enrichment z-score vs GST control; IMP3 is the RNA-binding protein IGF2BP3; higher = more enriched by binding
IMP3 KH1-4 = details: construct: KH1-4 (164-579); SELEX round: R4
Procedure: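 SELEX-seq with GST-tagged IMP3 KH1-4 (Pro164-Lys579) and an N40 RNA pool, round 4. 6-mer z-score of sequence-tag enrichment normalised to the corresponding GST SELEX round; RNA k-mers written as DNA (T for U).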

IMP3 RRM1-2 = details: construct: RRM1-2 (1-163); SELEX round: R2
IMP3 RRM1-2, sequence (chain, as listed by the source): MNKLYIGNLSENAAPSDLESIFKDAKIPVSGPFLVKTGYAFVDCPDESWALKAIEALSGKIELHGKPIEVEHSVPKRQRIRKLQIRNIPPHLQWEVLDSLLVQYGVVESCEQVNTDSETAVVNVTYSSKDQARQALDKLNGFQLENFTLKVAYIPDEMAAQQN
Procedure: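 SELEX-seq with GST-tagged IMP3 RRM1-2 (Met1-Asn163) and an N40 RNA pool, round 2. 6-mer enrichment z-score normalised to GST SELEX. RNA written as DNA (T = U).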

IMP3 full-length = IMP3 full-length (UniProt O00425); details: construct: FL IMP3 (1-579); SELEX round: R4
UniProt O00425, sequence (O00425 whole entry): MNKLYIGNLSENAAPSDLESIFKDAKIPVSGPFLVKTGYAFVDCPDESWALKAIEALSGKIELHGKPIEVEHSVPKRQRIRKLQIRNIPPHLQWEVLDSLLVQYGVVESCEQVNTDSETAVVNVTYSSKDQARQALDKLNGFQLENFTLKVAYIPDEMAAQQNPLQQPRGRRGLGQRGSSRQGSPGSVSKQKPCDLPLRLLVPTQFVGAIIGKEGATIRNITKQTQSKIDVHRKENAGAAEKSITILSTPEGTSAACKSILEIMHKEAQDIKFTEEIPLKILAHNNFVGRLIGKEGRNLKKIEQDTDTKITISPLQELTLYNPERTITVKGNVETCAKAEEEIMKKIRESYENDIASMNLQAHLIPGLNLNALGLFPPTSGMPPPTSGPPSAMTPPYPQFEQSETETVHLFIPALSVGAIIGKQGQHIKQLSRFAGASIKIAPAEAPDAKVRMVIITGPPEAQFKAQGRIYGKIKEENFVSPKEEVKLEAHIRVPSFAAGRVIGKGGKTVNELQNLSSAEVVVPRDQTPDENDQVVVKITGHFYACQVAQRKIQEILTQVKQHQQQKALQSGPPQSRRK
Procedure: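 SELEX-seq with GST-tagged full-length IMP3 and an N40 RNA pool, round 4. Each 6-mer is scored as an enrichment z-score of sequence tags containing it, normalised to the matching GST SELEX round. RNA written as DNA (T = U).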

IMP3 KH1-2 = details: construct: KH1-2 (164-376); SELEX round: R4
IMP3 KH1-2, sequence (chain, as listed by the source): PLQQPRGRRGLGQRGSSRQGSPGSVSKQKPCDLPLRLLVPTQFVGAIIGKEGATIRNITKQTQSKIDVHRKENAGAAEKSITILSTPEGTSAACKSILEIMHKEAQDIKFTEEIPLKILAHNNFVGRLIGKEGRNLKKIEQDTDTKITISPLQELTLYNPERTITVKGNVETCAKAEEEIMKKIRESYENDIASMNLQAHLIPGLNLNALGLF
Procedure: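 SELEX-seq with GST-tagged IMP3 KH1-2 (Pro164-Phe376) and an N40 RNA pool, round 4 (stringent 300/600 mM KCl washes). 6-mer z-score of sequence-tag enrichment normalised to the corresponding GST SELEX round; RNA k-mers written as DNA (T for U).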

IMP3 KH3-4 = details: construct: KH3-4 (377-579); SELEX round: R4
IMP3 KH3-4, sequence (chain, as listed by the source): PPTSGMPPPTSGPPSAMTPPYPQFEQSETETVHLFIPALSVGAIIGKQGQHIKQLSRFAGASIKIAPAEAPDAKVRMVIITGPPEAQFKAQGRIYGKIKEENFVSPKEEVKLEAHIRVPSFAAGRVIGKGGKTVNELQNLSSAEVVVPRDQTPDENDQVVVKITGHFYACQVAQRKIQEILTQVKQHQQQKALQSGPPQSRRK
Procedure: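 SELEX-seq with GST-tagged IMP3 KH3-4 (Pro377-Lys579) and an N40 RNA pool, round 4. 6-mer z-score of sequence-tag enrichment normalised to the corresponding GST SELEX round; RNA k-mers written as DNA (T for U).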

IMP3 KH1-4, sequence (chain, as listed by the source): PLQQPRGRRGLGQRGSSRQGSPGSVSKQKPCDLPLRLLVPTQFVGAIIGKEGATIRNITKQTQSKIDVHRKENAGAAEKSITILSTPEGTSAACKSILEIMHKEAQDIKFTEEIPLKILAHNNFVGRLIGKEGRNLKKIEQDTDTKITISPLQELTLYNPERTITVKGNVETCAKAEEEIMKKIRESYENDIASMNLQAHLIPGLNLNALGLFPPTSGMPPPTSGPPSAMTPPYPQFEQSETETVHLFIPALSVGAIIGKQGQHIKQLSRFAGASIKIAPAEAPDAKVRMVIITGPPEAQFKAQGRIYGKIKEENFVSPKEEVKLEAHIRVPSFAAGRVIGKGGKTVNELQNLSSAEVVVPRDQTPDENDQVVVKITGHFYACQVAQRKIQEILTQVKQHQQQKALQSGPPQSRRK

| Sequence | 6-mer SELEX enrichment z-score (IMP3 KH1-4) | 6-mer SELEX enrichment z-score (IMP3 RRM1-2) | 6-mer SELEX enrichment z-score (IMP3 full-length) | 6-mer SELEX enrichment z-score (IMP3 KH1-2) | 6-mer SELEX enrichment z-score (IMP3 KH3-4) |
| --- | --- | --- | --- | --- | --- |
| TTCCCA | -0.546 | -0.231 | -0.747 | -0.587 | -0.884 |
| GCCTAC | -0.637 | -0.218 | -0.336 | -0.524 | -0.668 |
| TATAGC | 0.521 | 0.051 | 0.135 | 0.467 | 0.682 |
| GTGTGT | 0.037 | 0.351 | -0.157 | 0.001 | 0.1 |
| TGCAGT | 0.738 | 0.19 | 0.342 | 0.541 | 0.448 |
| GGGAAT | 0.747 | -0.366 | 0.115 | 0.707 | 0.928 |
| TGGTCC | -0.288 | 0.217 | 0.149 | -0.234 | -0.315 |
| TATTAG | 0.888 | 0.223 | 0.284 | 0.678 | 1.19 |
| CCGACA | -1.29 | -0.432 | -0.4 | -1.04 | -1.63 |
| TGGGGG | 1.2 | 0.377 | 0.559 | 1.79 | 1.4 |
| TAGGCG | 0.104 | 0.357 | 0.439 | 0.179 | 0.398 |
| TAGTAT | 0.235 | 0.146 | -0.018 | 0.151 | 0.449 |
| TTATTG | 0.746 | 0.267 | 0.138 | 0.569 | 0.944 |
| GGTCCT | -0.252 | 0.193 | -0.036 | -0.191 | -0.206 |
| TTGTCA | 0.141 | 0.359 | 0.19 | -0.001 | 0.169 |
| TAGCTG | -0.092 | 0.098 | -0.132 | -0.051 | -0.004 |
| TGTTCC | 0.479 | 0.023 | -0.057 | 0.345 | 0.12 |
| CACTGA | 0.58 | -0.039 | 0.29 | 0.411 | 0.103 |
| GGTACA | -0.239 | 0.186 | 0.417 | -0.311 | -0.35 |
| CATAGC | 0.207 | 0.85 | 0.934 | 0.235 | 0.024 |

| Sequence | 6-mer SELEX enrichment z-score (IMP3 KH1-4) | 6-mer SELEX enrichment z-score (IMP3 RRM1-2) | 6-mer SELEX enrichment z-score (IMP3 full-length) | 6-mer SELEX enrichment z-score (IMP3 KH1-2) | 6-mer SELEX enrichment z-score (IMP3 KH3-4) |
| --- | --- | --- | --- | --- | --- |
| ACATCC | -0.011 | 0.68 | 0.653 | 0.024 | -0.94 |
| TACTTA | 0.456 | 0.114 | -0.123 | 0.529 | 0.69 |
| GGTAAA | -0.287 | -0.689 | -0.625 | -0.399 | 0.096 |
| CTAACC | -1.1 | -0.547 | -1.5 | -1.05 | -1.43 |
| AGGCCG | 0.43 | -0.282 | 0.81 | 0.499 | 0.398 |
| TTGATT | 0.677 | 0.138 | -0.035 | 0.472 | 0.989 |
| ATTGTA | 0.66 | -0.078 | -0.022 | 0.379 | 0.915 |
| GTGTAC | -0.641 | 0.053 | -0.232 | -0.593 | -0.559 |
| TTTAAT | 1.36 | 0.187 | 0.229 | 1.19 | 2.09 |
| GCCACT | 0.474 | 0.11 | 0.392 | 0.323 | 0.126 |
| AAGGTA | -0.468 | -0.262 | -0.36 | -0.47 | -0.147 |
| CACGCA | 1.38 | 1.84 | 2.02 | 1.3 | 0.459 |
| TTATCG | 0.075 | 0.227 | -0.098 | -0.003 | 0.188 |
| GAGGCC | 0.104 | -0.463 | 0.336 | 0.156 | 0.112 |
| GGTTTA | 0.18 | 0.271 | 0.018 | 0.11 | 0.508 |
| TGGCCG | 0.485 | -0.161 | 0.594 | 0.422 | 0.183 |
| ACGCGT | -2.07 | -0.048 | -0.919 | -1.83 | -1.65 |
| CACGGA | 0.449 | -0.157 | 0.44 | 0.038 | 0.048 |
| CAGACA | 0.71 | 1.93 | 1.65 | 1.05 | 0.335 |
| ACAGAG | -0.304 | 0.355 | 0.78 | -0.225 | -0.204 |

| Sequence | 6-mer SELEX enrichment z-score (IMP3 KH1-4) | 6-mer SELEX enrichment z-score (IMP3 RRM1-2) | 6-mer SELEX enrichment z-score (IMP3 full-length) | 6-mer SELEX enrichment z-score (IMP3 KH1-2) | 6-mer SELEX enrichment z-score (IMP3 KH3-4) |
| --- | --- | --- | --- | --- | --- |
| GTCAGG | 0.483 | 0.233 | 0.757 | 0.449 | 0.473 |
| CGAGCG | -2.16 | -0.036 | -0.156 | -1.92 | -1.81 |
| ATTAGT | 0.627 | 0.329 | 0.273 | 0.375 | 0.748 |
| GGAGAG | 1.17 | -0.574 | 0.427 | 0.984 | 0.904 |
| CATCGC | 0.856 | 0.614 | 1.34 | 0.61 | -0.105 |
| ACGAGC | -4.92 | -0.516 | -1.23 | -4.5 | -4.38 |
| TCGGAT | 0.493 | 0.243 | 0.378 | 0.244 | 0.564 |
| TAATCC | 0.132 | -0.483 | -0.646 | 0.126 | -0.099 |
| TCCATG | 0.491 | 0.124 | 0.09 | 0.219 | 0.061 |
| CGAGGA | -0.611 | -0.795 | -0.305 | -0.498 | -0.422 |
| CAGACT | -0.065 | -0.019 | -0.135 | 0.089 | -0.197 |
| GATTGG | 0.124 | 0.118 | -0.042 | 0.093 | 0.207 |
| GAGCAG | -0.781 | -0.01 | 0.186 | -0.726 | -0.676 |
| AGACGG | 0.128 | -0.554 | 0.152 | 0.032 | 0.043 |
| TGCAAT | 0.808 | 0.155 | 0.416 | 0.701 | 0.752 |
| TTTAAC | 1.01 | -0.269 | -0.298 | 1.1 | 1.57 |
| AGGCGC | 0.057 | 0.351 | 0.886 | 0.104 | 0.097 |
| TGCCAG | 0.003 | -0.373 | 0.008 | -0.046 | -0.184 |
| TATCGG | 0.174 | 0.21 | 0.277 | 0.078 | 0.263 |
| GGGGCC | 0.39 | -0.017 | 0.66 | 0.936 | 0.422 |
